The results in this text go back to ChEMBL document CHEMBL4888484, “Replenishing the malaria drug discovery pipeline: Screening and hit evaluation of the MMV Hit Generation Library 1 (HGL1) against asexual blood stage Plasmodium falciparum ,using a nano luciferase reporter read-out” (2022).

SMILES strings stand for the structures. Screen size: about 150,000 compounds; about 540 (0.36%) showed an effect of 50% or more. This is one part of the list.

The test system of this experiment is Plasmodium falciparum. Description: Primary screen in NF54 nanoGlo assay, in single point, at 2uM, 72h; a lower Z score goes with more inhibition. It is filed as functional, Erythrocyte. The following applies: timepoint 72 hour.
For the compound `Cc1cc(=O)c(OCC(=O)NCCc2nccs2)cn1C`, the “% Inhibition” value turned out to be 32% and the Z score is reported as -3.6.
For the compound `Cc1ncc(-c2ccc(S(=O)(=O)NCc3ccco3)cc2)o1`, the “% Inhibition” value came out at 4% and the Z score is given as -0.76.
The matching figures for `CN(C)C(C)(C)CNc1nnc(C(F)(F)F)s1`: -9% and 1.56.
On to `Cn1cnn(CC(=O)N(c2ccc(F)cc2)C2CCCC2)c1=O`, for which the “% Inhibition” value is 3% and the Z score is reported as -0.34.
On the same counts, the results for `COC(=O)c1cc(CN2CCc3c(F)cc(F)cc32)c[nH]1` are 4% and -0.78.
For the compound `O=S(=O)(NC1C2CCOC2C12CCCC2)[C@H]1C[C@@H]1c1ccccc1` (some centres not stated), the “% Inhibition” value stood at 1% and the Z score is -0.16.
The matching figures for `Cc1ccc(N(CCC#N)C(=O)COC(=O)c2ccc(OCc3ccccc3)cc2)cc1`: -6% and 0.92.
The matching figures for `C[C@H](O)C(=O)N1CCc2[nH]c(-c3ccccc3)nc2C1`: -5% and 0.94.
The matching figures for `Cc1nc(N)sc1CC(=O)NC(C)(C)CC(C)C`: -7% and 1.32.
As to `COc1cc(=O)n(-c2ccccc2)cc1C(=O)N[C@@H](Cn1nccn1)C(C)C`, the “% Inhibition” value is recorded as -3% and the Z score turned out to be 0.52.
On the same counts, the results for `Cc1ccc2nc(N3CCC(C(=O)NCCCN4CCN(c5cccc(Cl)c5)CC4)CC3)[nH]c2c1` are 5% and -0.74.
On the same counts, the results for `Cc1ccccc1C(=O)N1CCCN(c2nc(Cc3ccccc3)nc3onc(-c4ccccc4)c23)CC1` are -5% and 0.51.
On the same counts, the results for `COc1ccccc1CC(=O)N1CCC[C@H]1c1cc(C(C)C)no1` are -22% and 2.89.
For `CO[C@@H](C)CS(=O)(=O)Nc1c(C)c(C#N)nn1-c1ccccc1`, the “% Inhibition” value is -12% and the Z score is 2.32.
On the same counts, the results for `O=C(C[C@H]1COCCN1C(=O)Nc1ccccc1F)NCCc1ncc[nH]1` are 11% and -1.5.
On the same counts, the results for `Clc1ccc(-c2nc(Nc3cccc4ccccc34)c3ccccc3n2)c(Cl)c1` are -7% and 0.82.
The matching figures for `Cc1oc(C(C)C)cc1C(=O)N1CC(C)[S+]([O-])C(C)C1` (configuration not stated): -2% and 0.27.
For `CCn1nccc1CN(C)C(=O)c1ccnn1C(F)F`, the “% Inhibition” value was -42% and the Z score was determined as 4.91.
Regarding `CS(=O)(=O)N[C@H]1CC12CCN(C(=O)c1ccccn1)CC2`, the “% Inhibition” value turned out to be 10% and the Z score is listed as -1.29.
`CCn1ccnc1CN(C)Cc1cc(C)cc(C)n1`: the “% Inhibition” value is -8% and the Z score came to 1.16.
As to `CC(C)C(=O)N1CCN(c2nc3ccccc3c3nnc(C(C)C)n23)CC1`, the “% Inhibition” value is reported as -3% and the Z score was determined as 0.51.
Regarding `CCC(=O)N1CCC[C@@](NCCCOC)(c2nnnn2C2CCCC2)C1`, the “% Inhibition” value is given as -5% and the Z score amounted to 0.65.
The matching figures for `CCn1nc(CC(C)C)cc1C(=O)N1CCN(Cc2cccc(C)c2)C(=O)[C@@H]1C`: -14% and 1.8.
The matching figures for `Cn1cc(CN2CCCCc3ccccc32)cn1`: -36% and 4.21.
Turning to `COc1cccc(-n2c(=O)c3ccccc3n([C@@H](C)C(=O)NCc3cccc(C(F)(F)F)c3)c2=O)c1`, the “% Inhibition” value stood at 2% and the Z score is listed as -0.27.
The matching figures for `CC1CC(C)CN(C2=NC(=O)C(CC(=O)Nc3cccc(Cl)c3)N2)C1` (configuration not stated): 28% and -3.14.
The matching figures for `Cc1cnc(OC2CCN(Cc3cc4ccccc4[nH]c3=O)CC2)nc1`: -8% and 0.99.
The matching figures for `CN(Cc1ccccc1)c1cnn(Cc2nnc(-c3ccco3)o2)c(=O)c1`: -32% and 3.1.
With `c1ccc(-c2nc(-c3cccc(-c4nc(-c5ccccc5)nc5ccccc45)c3)c3ccccc3n2)cc1`, the “% Inhibition” value turned out to be 0% and the Z score was 0.02.
The matching figures for `Cc1ccc(Cl)cc1NC(=O)N1CCC(c2nnc(C(=O)Nc3ccccc3)s2)CC1`: -7% and 0.66.
The matching figures for `CN(C)C(=O)c1cccnc1-c1cccc2cccnc12`: 4% and -0.49.
With `Cc1nc(C)c(C(=O)Nc2nccn2C)s1`, the “% Inhibition” value is recorded as 2% and the Z score is on record as -0.32.
The matching figures for `Cc1ccc(NC(=O)c2c[nH]c3nc(C)ccc3c2=O)cc1`: -14% and 1.92.
As for `O=C(NCc1ccc(C2CC2)nc1)c1cscn1`, the “% Inhibition” value is given as 18% and the Z score was -2.32.
On the same counts, the results for `Cc1cccc2[nH]c(COCC(=O)NCCc3csc(N)n3)nc12` are -5% and 0.66.
On the same counts, the results for `CCN1CCCC[C@@H]1CNS(=O)(=O)CC1CCCC1` are 4% and -0.74.
On the same counts, the results for `Cc1nnc(-c2ccccc2NC(=O)[C@H](C)OCC2CC2)o1` are -5% and 0.53.
As for `Cc1cccc(-c2cncc(C(=O)NC3CCCCC3)c2)c1C`, the “% Inhibition” value was -15% and the Z score turned out to be 1.77.
Take `COC1CN(Cc2cncnc2)CCC1C` (configuration not stated): the “% Inhibition” value is reported as -22% and the Z score is reported as 3.18.
The matching figures for `CC(C)(C)c1noc(CNS(=O)(=O)N2CCCC2)n1`: -16% and 2.06.
On the same counts, the results for `CC1CCCC(NCC(C)(C)CCC#N)C1` (configuration not stated) are -9% and 1.17.
The matching figures for `Cc1ccc(CCNC(=O)C2CCCC2)o1`: -7% and 1.01.
`CNS(=O)(=O)CCN1C[C@@](C)(Cc2ccc3c(c2)OCO3)CCC1=O`: the “% Inhibition” value is given as -6% and the Z score is given as 0.83.
For `Cc1cccc(C)c1NC(=O)Nc1nnc2ccccn12`, the “% Inhibition” value stood at 8% and the Z score is on record as -0.88.
On to `Cn1c(C(F)(F)F)nn(CC(=O)OCc2ccccc2)c1=O`, for which the “% Inhibition” value is -13% and the Z score turned out to be 1.49.
With `COCCN1C[C@@H](Cc2cc(C(=O)N3CCCCC3)ccn2)CC1=O`, the “% Inhibition” value is on record as -12% and the Z score is reported as 1.32.
On the same counts, the results for `Cc1noc(C(F)F)c1C(=O)NC[C@H]1CS(=O)(=O)c2ccccc2O1` are -3% and 0.45.
On the same counts, the results for `CCCNC(=O)N(CCOC)Cc1c(C)nn(-c2ccccc2)c1Oc1ccc(OC)cc1` are 3% and -0.43.
As to `c1cc(C2CC2)nnc1OC1CCCC1`, the “% Inhibition” value is -1% and the Z score turned out to be 0.13.
On the same counts, the results for `CN(CC(=O)NCCc1ccc(F)cc1)Cc1ncc[nH]1` are -2% and 0.27.
On to `CC(C)(C)CC(C)(C)NC(=O)NCC1(CS(C)(=O)=O)CC1`, for which the “% Inhibition” value is -10% and the Z score is 1.14.
On to `Cc1[nH]ccc1C(=O)N1CC[C@]2(CCN(C(=O)OC(C)(C)C)C2)C1`, for which the “% Inhibition” value is recorded as 31% and the Z score was -4.04.
The matching figures for `O=S(=O)(NC1CCC2CCCCC2C1)c1ccco1` (configuration not stated): -2% and 0.32.
On the same counts, the results for `O=C(Cn1ncc2c([nH]c3ccccc32)c1=O)N1CCCCCC1` are -1% and 0.11.
On the same counts, the results for `Cc1cc(CN2CC[C@H](CNC(=O)c3c(F)cccc3F)C2)oc1C` are -1% and 0.2.
Regarding `COc1ccc2nc(C(F)(F)F)nc(N3CCNC(=O)CCN(C(=O)C(F)=C4CCCC4)CC3)c2c1`, the “% Inhibition” value amounted to 35% and the Z score is on record as -0.8.
Consider `COc1ccc(-c2noc(N3CCc4ccccc43)n2)cc1`, for which the “% Inhibition” value is on record as -17% and the Z score is 1.49.
The matching figures for `CCCNC(=O)CN1C(=O)CCCc2cc(S(=O)(=O)N3CCCCCC3)ccc21`: -5% and 0.68.
The matching figures for `O=C(c1cc(-c2ccc(F)cc2)n[nH]1)N1CCC(n2nccn2)CC1`: 4% and -0.46.
As to `COc1ccc(-n2nc(C)c3c2NC(=O)C[C@@H]3c2cccc(OC(C)C)c2)nn1`, the “% Inhibition” value is -5% and the Z score came out at 0.67.
On the same counts, the results for `CN(C)C1(CNc2ncc(F)cn2)CCCC1` are -3% and 0.48.
On to `CC1CC(CS(=O)(=O)N2CCC(CN3CCCCC3=O)CC2)C1` (configuration not stated), for which the “% Inhibition” value is recorded as -4% and the Z score amounted to 0.6.
Turning to `Cc1cc(C)n(CCNCc2cc3ccc(F)cc3n(CC(C)C)c2=O)n1`, the “% Inhibition” value was -7% and the Z score amounted to 0.94.
On the same counts, the results for `CCc1cnc(C)nc1N1C[C@H](C(=O)O)[C@@H](C2CC2)C1` are -7% and 1.41.
With `CCc1cccc(/N=C(/NC(=O)c2ccccc2)N2CCN(c3cc(C)ccc3C)CC2)c1`, the “% Inhibition” value is on record as -4% and the Z score is on record as 0.66.
On the same counts, the results for `COc1cccc2c1CN(C(=O)COCc1cc(C)on1)C2` are -9% and 1.09.
Regarding `CN(CCN1CCN2C(=O)C(=O)NC[C@H]2C1)Cc1ccc(F)cc1`, the “% Inhibition” value was 4% and the Z score was -0.67.
On the same counts, the results for `COC[C@H](NS(=O)(=O)NCc1ccccc1)c1ccnn1C` are 4% and -0.47.
On the same counts, the results for `Cc1ccsc1CNc1cccc(C(=O)NCCc2ccncc2)c1` are 1% and -0.2.
On the same counts, the results for `CCOC(=O)c1cc(NC(=O)CC(F)(F)F)[nH]n1` are -11% and 1.02.
`C=CCn1c(=O)sc2cc(NC(=O)CC3CCCCC3)ccc21`: the “% Inhibition” value is on record as -12% and the Z score is given as 1.5.
As to `CCc1noc(CCNS(=O)(=O)CCOc2ccccc2F)n1`, the “% Inhibition” value is reported as -10% and the Z score turned out to be 0.99.
On the same counts, the results for `CC[C@@H](C)[C@@H](CO)NC(=O)CC[C@@H]1NC(=O)N(Cc2ccc3c(c2)OCO3)C1=O` are -15% and 1.93.
On the same counts, the results for `CCc1noc([C@H](C)S(=O)(=O)Cc2ccn(-c3ccccc3)n2)n1` are -19% and 2.2.
On the same counts, the results for `O=C1CN(c2ccc(NC(=O)C3CCCCC3)cn2)CCN1` are -15% and 1.35.
On to `Cc1ccc(NC2OC(C)C(O)C(O)C2O)cc1C` (configuration not stated), for which the “% Inhibition” value is -14% and the Z score stood at 1.9.
On the same counts, the results for `O=C(c1ccc2c(c1)OCO2)N1CC(CN2C(=O)COC2=O)C1` are 10% and -1.28.
Take `Cc1nccn1C1CN(C(=O)CCCc2ccccc2)C1`: the “% Inhibition” value is listed as 10% and the Z score was -1.74.
The matching figures for `COc1ccc([C@@H](O)C(=O)N2CCc3[nH]c(-c4ccccc4)nc3C2)cc1`: -14% and 1.29.
The matching figures for `O=C(NCC1CCCC1O)Nc1nccs1` (configuration not stated): -4% and 0.52.
On the same counts, the results for `N#Cc1c[nH]c(C(=O)N[C@H]2COCC[C@@H]2O)c1` are -1% and 0.12.
With `O=C(C1CCN(c2cncnc2N2CCCCC2)CC1)N1CCN(c2ccccn2)CC1`, the “% Inhibition” value was found to be 10% and the Z score is given as -1.86.
The matching figures for `Cc1cc(NS(=O)(=O)N2CCC(C)CC2)c[nH]c1=O`: 5% and -0.69.
`O=C(NCc1ccccc1)C1CN(C(=O)c2cccc(Cl)c2)CC1c1cccc(C(F)(F)F)c1` (configuration not stated): the “% Inhibition” value was -7% and the Z score turned out to be 1.07.
On the same counts, the results for `CCc1noc(C)c1C(=O)NCCOc1cccc2c1OC(C)(C)C2` are 0% and 0.03.
On the same counts, the results for `CCn1cc(CN2CCC(n3nccc3NC(=O)C3CCCC3)CC2)c(C)n1` are -4% and 0.65.

A word on the % Inhibition: it is the change of the read-out against control, counted positive when it falls.
